According to the supplement of paper PMC4604168 (melanoma cell lines):
The other results are listed elsewhere or left out. Repeats are few or missing, and single values can be far off.

system: RVH-421; experiment: cell count relative to DMSO control; melanoma cells; higher = more viable cells; conditions: library dose: low library concentration; 72 h
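Further: cell number obtained by counting DAPI-stained nuclei in high-throughput microscope images with image analysis software, screen run in 1,536-well plates.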

| SMILES | cell count |
| --- | --- |
| Nc1nc(F)nc2c1ncn2[C@@H]1O[C@H](CO)[C@@H](O)[C@@H]1O [fludarabine] + O=S(=O)(c1ccccc1)N(CC(F)(F)F)c1ccc(C(O)(C(F)(F)F)C(F)(F)F)cc1 [T0901317] (first compound 0.2 µM, partner dose 1.4 µM) | 107% |
| Nc1ncn([C@H]2C[C@H](O)[C@@H](CO)O2)c(=O)n1 [decitabine] + O=C(O)C(=O)Nc1sc2c(c1C(=O)O)CCNC2 [TCS401] (first compound 0.1 µM, partner dose 1.66667 µM) | 85% |
| CO[C@H]1C[C@@H]2CC[C@@H](C)[C@@](O)(O2)C(=O)C(=O)N2CCCC[C@H]2C(=O)O[C@H]([C@H](C)C[C@@H]2CC[C@@H](OCCO)[C@H](OC)C2)CC(=O)[C@H](C)/C=C(\C)[C@@H](O)[C@@H](OC)C(=O)[C@H](C)C[C@H](C)/C=C/C=C/C=C/1C [everolimus] + OCc1c[nH]c2ccccc12 [Indole-3-carbinol] (first compound 0.02 µM, partner dose 0.8 µM) | 81.4% |

system: SkMel28; experiment: as above; conditions: library dose: low library concentration; 72 h

| SMILES | cell count |
| --- | --- |
| Nc1ccn([C@@H]2O[C@H](CO)[C@@H](O)C2(F)F)c(=O)n1 [gemcitabine] + O=C(CCCCCCC(=O)Nc1ccccc1)NO [vorinostat] (first compound 0.0004 µM, partner dose 0.08 µM) | 86.7% |
| Nc1nc(F)nc2c1ncn2[C@@H]1O[C@H](CO)[C@@H](O)[C@@H]1O [fludarabine] + Oc1nc(-c2ccc(C(F)(F)F)cc2)nc2c1CSCC2 [XAV939] (first compound 0.2 µM, partner dose 2 µM) | 77.5% |
| Nc1ccn([C@@H]2O[C@H](CO)[C@@H](O)C2(F)F)c(=O)n1 [gemcitabine] + O=C(Nc1ccccc1)c1cc([N+](=O)[O-])ccc1Cl [GW9662] (first compound 0.0004 µM, partner dose 2 µM) | 87.6% |
| CO[C@H]1C[C@@H]2CC[C@@H](C)[C@@](O)(O2)C(=O)C(=O)N2CCCC[C@H]2C(=O)O[C@H]([C@H](C)C[C@@H]2CC[C@@H](OCCO)[C@H](OC)C2)CC(=O)[C@H](C)/C=C(\C)[C@@H](O)[C@@H](OC)C(=O)[C@H](C)C[C@H](C)/C=C/C=C/C=C/1C [everolimus] + COc1ccc(Cl)c(Nc2nc3ccccc3nc2NS(=O)(=O)c2cccc(NC(=O)C(C)(C)N)c2)c1 [XL147] (first compound 0.02 µM, partner dose 0.8 µM) | 48.5% |
| Nc1ccn([C@@H]2O[C@H](CO)[C@@H](O)C2(F)F)c(=O)n1 [gemcitabine] + C#Cc1cccc(Nc2ncnc3cc(OCCOC)c(OCCOC)cc23)c1 [erlotinib] (first compound 0.0004 µM, partner dose 0.8 µM) | 101% |
| CO[C@H]1C[C@@H]2CC[C@@H](C)[C@@](O)(O2)C(=O)C(=O)N2CCCC[C@H]2C(=O)O[C@H]([C@H](C)C[C@@H]2CC[C@@H](OCCO)[C@H](OC)C2)CC(=O)[C@H](C)/C=C(\C)[C@@H](O)[C@@H](OC)C(=O)[C@H](C)C[C@H](C)/C=C/C=C/C=C/1C [everolimus] + CN(C)S(=O)(=O)c1ccc2c(c1)/C(=C/c1cc3c([nH]1)CCCC3)C(=O)N2 [SU6656] (first compound 0.02 µM, partner dose 0.4 µM) | 55.3% |
| CO[C@H]1C[C@@H]2CC[C@@H](C)[C@@](O)(O2)C(=O)C(=O)N2CCCC[C@H]2C(=O)O[C@H]([C@H](C)C[C@@H]2CC[C@@H](OCCO)[C@H](OC)C2)CC(=O)[C@H](C)/C=C(\C)[C@@H](O)[C@@H](OC)C(=O)[C@H](C)C[C@H](C)/C=C/C=C/C=C/1C [everolimus] + Nc1nc(F)nc2c1ncn2[C@@H]1O[C@H](CO)[C@@H](O)[C@@H]1O [fludarabine] (first compound 0.02 µM, partner dose 0.2 µM) | 39.4% |
| CO[C@H]1C[C@@H]2CC[C@@H](C)[C@@](O)(O2)C(=O)C(=O)N2CCCC[C@H]2C(=O)O[C@H]([C@H](C)C[C@@H]2CC[C@@H](OCCO)[C@H](OC)C2)CC(=O)[C@H](C)/C=C(\C)[C@@H](O)[C@@H](OC)C(=O)[C@H](C)C[C@H](C)/C=C/C=C/C=C/1C [everolimus] + CC(=O)c1c(C)c2cnc(Nc3ccc(N4CCNCC4)cn3)nc2n(C2CCCC2)c1=O [palbociclib] (first compound 0.02 µM, partner dose 0.04 µM) | 64.6% |
| CC(=O)O[C@@]12CO[C@@H]1C[C@H](O)[C@@]1(C)C(=O)[C@H](O)C3=C(C)[C@@H](OC(=O)[C@H](O)[C@@H](NC(=O)OC(C)(C)C)c4ccccc4)C[C@@](O)([C@@H](OC(=O)c4ccccc4)[C@H]21)C3(C)C [Docetaxel] + CC(C)C[C@H](NC(=O)[C@H](Cc1ccccc1)NC(=O)c1cnccn1)B(O)O [Bortezomib] (first compound 0.0001 µM, partner dose 0.001 µM) | 47.3% |
| CO[C@H]1C[C@@H]2CC[C@@H](C)[C@@](O)(O2)C(=O)C(=O)N2CCCC[C@H]2C(=O)O[C@H]([C@H](C)C[C@@H]2CC[C@@H](OCCO)[C@H](OC)C2)CC(=O)[C@H](C)/C=C(\C)[C@@H](O)[C@@H](OC)C(=O)[C@H](C)C[C@H](C)/C=C/C=C/C=C/1C [everolimus] + Nc1ncn([C@H]2C[C@H](O)[C@@H](CO)O2)c(=O)n1 [decitabine] (first compound 0.02 µM, partner dose 0.1 µM) | 53.5% |
| CC(=O)O[C@@]12CO[C@@H]1C[C@H](O)[C@@]1(C)C(=O)[C@H](O)C3=C(C)[C@@H](OC(=O)[C@H](O)[C@@H](NC(=O)OC(C)(C)C)c4ccccc4)C[C@@](O)([C@@H](OC(=O)c4ccccc4)[C@H]21)C3(C)C [Docetaxel] + O=C(O)c1ccc2c(c1)nc(Nc1cccc(Cl)c1)c1ccncc12 [CX4945] (first compound 0.0001 µM, partner dose 0.4 µM) | 38.6% |
| Nc1ccn([C@@H]2O[C@H](CO)[C@@H](O)C2(F)F)c(=O)n1 [gemcitabine] + Cn1cc(/C=C2\C(=O)Nc3cccnc32)c2ccccc21 [GW441756] (first compound 0.0004 µM, partner dose 0.4 µM) | 86.8% |
| CO[C@H]1C[C@@H]2CC[C@@H](C)[C@@](O)(O2)C(=O)C(=O)N2CCCC[C@H]2C(=O)O[C@H]([C@H](C)C[C@@H]2CC[C@@H](OCCO)[C@H](OC)C2)CC(=O)[C@H](C)/C=C(\C)[C@@H](O)[C@@H](OC)C(=O)[C@H](C)C[C@H](C)/C=C/C=C/C=C/1C [everolimus] + OCCn1cc(-c2cnc3nnn(Cc4ccc5ncccc5c4)c3n2)cn1 [PF04217903] (first compound 0.02 µM, partner dose 1 µM) | 50.3% |
| CC(=O)O[C@@]12CO[C@@H]1C[C@H](O)[C@@]1(C)C(=O)[C@H](O)C3=C(C)[C@@H](OC(=O)[C@H](O)[C@@H](NC(=O)OC(C)(C)C)c4ccccc4)C[C@@](O)([C@@H](OC(=O)c4ccccc4)[C@H]21)C3(C)C [Docetaxel] + Cc1cc([N+](=O)[O-])ccc1NS(=O)(=O)c1cc(Cl)ccc1Cl [FH535] (first compound 0.0001 µM, partner dose 1 µM) | 38.6% |
| CO[C@H]1C[C@@H]2CC[C@@H](C)[C@@](O)(O2)C(=O)C(=O)N2CCCC[C@H]2C(=O)O[C@H]([C@H](C)C[C@@H]2CC[C@@H](OCCO)[C@H](OC)C2)CC(=O)[C@H](C)/C=C(\C)[C@@H](O)[C@@H](OC)C(=O)[C@H](C)C[C@H](C)/C=C/C=C/C=C/1C [everolimus] + COCC[n+]1c2c(n(Cc3cnccn3)c1C)C(=O)c1ccccc1C2=O [YM155] (first compound 0.02 µM, partner dose 0.0004 µM) | 66.2% |
| CO[C@H]1C[C@@H]2CC[C@@H](C)[C@@](O)(O2)C(=O)C(=O)N2CCCC[C@H]2C(=O)O[C@H]([C@H](C)C[C@@H]2CC[C@@H](OCCO)[C@H](OC)C2)CC(=O)[C@H](C)/C=C(\C)[C@@H](O)[C@@H](OC)C(=O)[C@H](C)C[C@H](C)/C=C/C=C/C=C/1C [everolimus] + C=CCNC1=C2C[C@@H](C)C[C@H](OC)[C@H](O)[C@@H](C)/C=C(\C)[C@H](OC(N)=O)[C@@H](OC)/C=C\C=C(/C)C(=O)NC(=CC1=O)C2=O [Tanespimycin] (first compound 0.02 µM, partner dose 0.002 µM) | 54.1% |
| Nc1nc(F)nc2c1ncn2[C@@H]1O[C@H](CO)[C@@H](O)[C@@H]1O [fludarabine] + Cn1nnc2c(C(N)=O)ncn2c1=O [temozolomide] (first compound 0.2 µM, partner dose 2 µM) | 79.2% |
| CC(=O)c1c(C)c2cnc(Nc3ccc(N4CCNCC4)cn3)nc2n(C2CCCC2)c1=O [palbociclib] + O=S(=O)(c1ccccc1)N(CC(F)(F)F)c1ccc(C(O)(C(F)(F)F)C(F)(F)F)cc1 [T0901317] (first compound 0.04 µM, partner dose 1.4 µM) | 58.7% |
| CO[C@H]1C[C@@H]2CC[C@@H](C)[C@@](O)(O2)C(=O)C(=O)N2CCCC[C@H]2C(=O)O[C@H]([C@H](C)C[C@@H]2CC[C@@H](OCCO)[C@H](OC)C2)CC(=O)[C@H](C)/C=C(\C)[C@@H](O)[C@@H](OC)C(=O)[C@H](C)C[C@H](C)/C=C/C=C/C=C/1C [everolimus] + CCCS(=O)(=O)Nc1ccc(F)c(C(=O)c2c[nH]c3ncc(Cl)cc23)c1F [PLX4720] (first compound 0.02 µM, partner dose 0.08 µM) | 55.7% |
